Data published in the supplement of paper PMC4166925.
± gives the standard deviation of the averaged measurements. In all, about 33,000 sequences were measured (“E-score (dimensionless, -0.5 to 0.5)”: median about -0.049, highest 2% from about 0.37 on). The list shows a part of the results.

System: T1, PmTbr T-box DNA-binding domain (GST fusion)
T1 sequence: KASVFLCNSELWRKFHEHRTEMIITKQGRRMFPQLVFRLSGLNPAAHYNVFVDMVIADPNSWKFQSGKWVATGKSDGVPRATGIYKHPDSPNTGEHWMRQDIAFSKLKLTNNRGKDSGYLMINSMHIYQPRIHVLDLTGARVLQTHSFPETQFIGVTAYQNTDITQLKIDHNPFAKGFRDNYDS
Experiment: PBM E-score of 8-mer (E-score (dimensionless, -0.5 to 0.5)); Tbr is Tbrain of the sea star Patiria miniata (Pm) or the sea urchin Strongylocentrotus purpuratus (Sp); higher = stronger binding preference; most listed sequences are background and not binding sites
Conditions: the construct has about 5 more residues each side
Procedure: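 Universal protein-binding microarray (Agilent AMADID 016060, 60-bp probes with a 35-bp variable region) incubated with 200 nM GST-fused Patiria miniata Tbr T-box DNA-binding domain (residues 272-466) in PBS pH 7.5. Scored for every ungapped 8-mer (given with its reverse complement) by the Universal PBM Analysis Suite as E-score (modified Wilcoxon-Mann-Whitney enrichment, range -0.5 to 0.5; >0.45 counts as bound) and Z-score of median probe intensity. Two replicate arrays (datasets 1 and 2).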
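Further: 200 nM protein in PBS on universal arrays averaged over duplicate arrays.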

| Sequence | PBM E-score of 8-mer |
| --- | --- |
| AACCGGGA | -0.09424 ± 0.00045 |
| GAACACAC | 0.173 ± 0.061 |
| CAATGGTC | -0.185 ± 0.055 |
| CAAATCCG | -0.00304 ± 0.052 |
| AAGGTGTA | 0.404 ± 0.026 |
| CACTGCCA | 0.0889 ± 0.012 |
| GCGACTAC | 0.131 ± 0.019 |
| ACAACTCC | 0.116 ± 0.047 |
| ACTGGCTG | -0.106 ± 0.12 |
| AAAGCATT | -0.0173 ± 0.079 |
| CCATGCAA | -0.0385 ± 0.022 |
| GGGGGACC | -0.2333 ± 0.002 |
| CGATCTAA | -0.173 ± 0.097 |
| AACCCAGT | -0.32 ± 0.063 |
| AGAAGTTC | -0.0679 ± 0.018 |
| CTATACGC | -0.242 ± 0.0075 |
| CTGCTTCC | -0.188 ± 0.072 |
| AATGCTCC | -0.0523 ± 0.0048 |
| CAACCTAG | -0.0267 ± 0.023 |
| AGCCTGGG | -0.157 ± 0.086 |
| CAGTCCCA | -0.0093 ± 0.065 |
| GTCGAAAA | -0.0277 ± 0.09 |
| ATAATGGC | -0.07 ± 0.035 |
| ATCCGGGG | 0.0462 ± 0.1 |
| AATTAACA | 0.288 ± 0.061 |

| Sequence | PBM E-score of 8-mer |
| --- | --- |
| TGGCGACA | 0.3273 ± 0.0022 |
| TAAAACTA | -0.0853 ± 0.14 |
| AGCTGTGA | 0.404 ± 0.017 |
| CTTTAGTA | -0.0763 ± 0.042 |
| AGAATGAT | -0.0138 ± 0.073 |
| AAGTACTC | -0.0949 ± 0.013 |
| CAATAGTA | -0.241 ± 0.061 |
| GTTCGTAA | -0.121 ± 0.037 |
| GTTGTCCA | 0.0612 ± 0.017 |
| AAATCCAG | -0.0508 ± 0.012 |
| ACGCTTAT | 0.0287 ± 0.0034 |
| GACCAGGC | 0.00606 ± 0.035 |
| AGAGACAG | -0.132 ± 0.0054 |
| AGATTAGC | 0.0839 ± 0.03 |
| GTGCAGAA | 0.0654 ± 0.016 |
| ATTTGGAA | -0.171 ± 0.0028 |
| TAATTCCA | -0.124 ± 0.0074 |
| CTAGGATC | -0.255 ± 0.018 |
| ATAGGGTA | 0.178 ± 0.015 |
| GAGTCCTA | -0.047 ± 0.074 |
| AAGGTCAA | -0.15 ± 0.076 |
| AACTCCAC | 0.0837 ± 0.074 |
| GCAGAGCA | -0.203 ± 0.027 |
| CTTGCGAC | 0.273 ± 0.022 |
| CGGCCCCA | 0.126 ± 0.013 |

| Sequence | PBM E-score of 8-mer |
| --- | --- |
| ATCGAGCC | -0.0159 ± 0.045 |
| GCTTAACA | 0.168 ± 0.087 |
| TGAAGGCA | -0.12 ± 0.017 |
| CATGCATA | -0.21 ± 0.03 |
| TCGGTGCA | -0.0952 ± 0.063 |
| CTCACATA | 0.0666 ± 0.017 |
| TAGTGGAA | 0.0336 ± 0.013 |
| CGGCGATC | -0.182 ± 0.025 |
| CCGGCAGA | -0.232 ± 0.11 |
| GCGCCGGA | 0.0121 ± 0.084 |
| AACTGGCG | 0.109 ± 0.016 |
| CTACCTAG | -0.0434 ± 0.12 |
| AAGGTAAT | -0.0882 ± 0.11 |
| CGAGGGAC | -0.049 ± 0.072 |
| GATGTCGA | 0.0908 ± 0.011 |
| CTAAGCCC | -0.178 ± 0.085 |
| TAGGAGCA | 0.00877 ± 0.042 |
| AATATTTC | 0.0525 ± 0.095 |
| AGTTTGCG | 0.033 ± 0.027 |
| CGATCGTA | 0.00258 ± 0.013 |
| CTGCCCTA | -0.169 ± 0.058 |
| AAGAATGG | -0.118 ± 0.026 |
| ATACTCCA | -0.0589 ± 0.05 |
| CCCGGTTA | -0.191 ± 0.012 |
| ACCCTGTG | 0.178 ± 0.052 |

| Sequence | PBM E-score of 8-mer |
| --- | --- |
| GCAGCCAC | 0.114 ± 0.061 |
| CGAACTCA | 0.0995 ± 0.042 |
| CAATCTCA | 0.144 ± 0.017 |
| AAACCAGT | -0.184 ± 0.067 |
| CGGCCGCA | -0.0169 ± 0.07 |
| GCGGTTCC | -0.153 ± 0.0068 |
| AAACGCGT | 0.164 ± 0.047 |
| AACTCCAT | 0.00349 ± 0.036 |
| GTGATTAA | 0.215 ± 0.041 |
| GATTCTAC | -0.217 ± 0.02 |
| ACGGAATC | 0.0455 ± 0.0028 |
| AAAAGTCG | 0.119 ± 0.022 |
| GCACGACA | 0.0657 ± 0.0079 |
| TCGAGAGA | -0.0175 ± 0.015 |
| AATTGACG | 0.223 ± 0.006 |
| CGGATACA | -0.28 ± 0.069 |
| CCTTAACC | -0.123 ± 0.006 |
| CCAGAGCA | -0.278 ± 0.039 |
| ACGATTAC | -0.00917 ± 0.0029 |
| GATTAGGC | -0.0984 ± 0.022 |
| CATGGCCA | -0.139 ± 0.039 |
| CAGTACCA | -0.0345 ± 0.056 |
| AGATCCTG | -0.272 ± 0.038 |
| GTTACGCA | -0.192 ± 0.046 |
| CCGCATCA | -0.0225 ± 0.028 |

| Sequence | PBM E-score of 8-mer |
| --- | --- |
| CAGTGGAA | -0.163 ± 0.026 |
| ATGACACA | 0.314 ± 0.0075 |
| CTTCCTCA | 0.121 ± 0.021 |
| AATTGATA | 0.185 ± 0.018 |
| CCCCTCTC | -0.182 ± 0.028 |
| ATGATCGC | 0.0765 ± 0.017 |
| AGCGGGAA | 0.0926 ± 0.0051 |
| ATTCGTAA | -0.0658 ± 0.076 |
| ATCATGTA | -0.108 ± 0.14 |
| GATACCGC | -0.00527 ± 0.061 |
| CGAGACCA | -0.0217 ± 0.093 |
| CGTCACAA | 0.175 ± 0.033 |
| CAGTTAGA | -0.168 ± 0.025 |
| AAGAACTC | -0.14 ± 0.017 |
| GCCTGAGA | -0.00076 ± 0.052 |
| ATGTCATG | -0.158 ± 0.058 |
| GCAAGCAC | 0.132 ± 0.011 |
| TATACACA | 0.0604 ± 0.029 |
| TCCTATCA | 0.0238 ± 0.1 |
| ATTCTATA | -0.236 ± 0.028 |
| ATACGCTG | -0.105 ± 0.013 |
| CTAAGGTC | -0.13986 ± 1.4e-05 |
| GGACGAGA | -0.0167 ± 0.022 |
| CATGGGCG | 0.0259 ± 0.0044 |
| CTACAAGC | 0.0404 ± 0.0068 |

| Sequence | PBM E-score of 8-mer |
| --- | --- |
| ACAAAATG | 0.137 ± 0.059 |
| GGTAGCGA | 0.217 ± 0.011 |
| CTCGTTCC | -0.238 ± 0.041 |
| GAAGAGCA | -0.00224 ± 0.16 |
| ACGCGCAC | 0.0739 ± 0.028 |
| CTTGCTTA | 0.1055 ± 0.00096 |
| CAAGAGCA | -0.0882 ± 0.084 |
| ATCCACCA | -0.0511 ± 0.051 |
| CCACGCAA | -0.0508 ± 0.0079 |
| GAAAAGGC | 0.132 ± 0.028 |
| TACACCGA | 0.042 ± 0.083 |
| ATATGCCA | 0.04272 ± 0.00018 |
| AACCCGGT | -0.189 ± 0.041 |
| TCAACAAA | -0.12 ± 0.043 |
| AACACATA | 0.373 ± 0.0082 |
| GTGCCTGA | -0.0569 ± 0.042 |
| ACACGGTA | 0.11 ± 0.064 |
| ACAACGGT | 0.233 ± 0.0053 |
| AAACGATG | -0.0999 ± 0.069 |
| TAGCTGCA | -0.0612 ± 0.029 |
| ATATGGGC | -0.227 ± 0.019 |
| CCACCGAC | 0.0896 ± 0.016 |
| AATCCTGC | -0.0407 ± 0.025 |
| AAAGAGAT | 0.0271 ± 0.059 |
| TACAGATA | -0.0889 ± 0.062 |

| Sequence | PBM E-score of 8-mer |
| --- | --- |
| AGAATGAA | -0.101 ± 0.08 |
| TAGTTGGA | -0.315 ± 0.039 |
| TCGGCTAA | 0.0882 ± 0.0088 |
| AGACGGTA | -0.175 ± 0.026 |
| AACCCGTT | -0.121 ± 0.037 |
| GCTCAGAC | -0.149 ± 0.02 |
| ACTCGAGT | -0.0518 ± 0.1 |
| CACCCAGC | 0.19 ± 0.021 |
| AAAACGGG | -0.146 ± 0.0023 |
| AGGCAGCC | -0.182 ± 0.11 |
| AATTGGGG | -0.211 ± 0.0072 |
| GAAGCTCA | 0.0428 ± 0.0011 |
| CGCCTCCC | 0.199 ± 0.0023 |
| ACTACAGG | -0.128 ± 0.02 |
| CAGAGGGC | -0.184 ± 0.056 |
| ACTCGGAC | 0.0843 ± 0.0036 |
| ATGACGAA | -0.065 ± 0.04 |
| CTACCAGC | 0.0264 ± 0.083 |
| ACTAAGCT | -0.153 ± 0.021 |
| AGACTGCC | -0.115 ± 0.05 |
| CACCACCG | 0.245 ± 0.067 |
| CCGTGGGC | -0.252 ± 0.033 |
